# Among all 420,000 compounds or so, about 50,000 (12%) were called active. The inconclusive results got no clear call from the source; some entries with a clear call stand among them for comparison. Calls follow the shape of the dose curve; as a rule, active = well fitted inhibition curve with a large enough effect; inconclusive = small, poorly fitted or top-dose-only effect; inactive = flat fitted curve, though single readings scatter. Potencies of inconclusive entries are left out as doubtful fits.
# Experiment: qHTS for Inhibitors of human tyrosyl-DNA phosphodiesterase 1 (TDP1): qHTS in cells in presence of CPT; also: nearly all actives have a fitted effect of over 55% in size
# Conditions: chicken DT40 Tdp1-/-;hTDP1 cells + 20 nM CPT, ATP luminescence, 48 h; series mostly up to 46.2 µM
# Procedure, shortened: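 Chicken DT40 Tdp1-/- cells stably complemented with human TDP1 were seeded at 400 cells/well in medium containing 20 nM camptothecin, exposed to pin-transferred compounds, and grown at 37 °C for at least 48 hr. Viability was read as ATP luminescence.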
# Potency is read from the fitted curve at half-maximal effect; tags tell the direction and shape of the fitted curve.
row,Compound,Potency
1,CCN(CC)c1ccc(/C=N\NC(=O)c2cccc3cc[nH]c23)cc1,active: 5.17 µM
2,COc1ccc2c(c1)C1CC(C)(NC(=O)C1S(=O)(=O)c1ccc(F)cc1)O2 (centres undefined),"inconclusive [inhibitor, full curve, poor fit]"
3,Cc1ccc(/C=C(\NC(=O)c2ccc(C)cc2)c2nc(=S)[nH][nH]2)cc1,active: 14.6 µM
4,Cc1cccc(NC(=O)CSc2nnc3ccc(-c4ccccn4)nn23)c1,"inconclusive [inhibitor, partial curve]"
5,COc1ccc(-n2c(=O)c3c4c(sc3n(Cc3ccc(C)cc3C)c2=O)CCC4)c(OC)c1,active: 18.4 µM
6,CCOC(=O)C1=C(C)NC(=S)NC1c1ccc(OC(=O)c2ccco2)cc1 (centres undefined),inactive
7,Cn1cc(/C=C/c2cc[n+](C)cc2)c2cc(Cl)ccc21,active: 0.651 µM
8,Cc1ccccc1NS(=O)(=O)c1ccc(S(=O)(=O)N2CCCC2)cc1,inactive
9,CCOC(=O)CCSc1nc(C)c2cc(C)ccc2n1,inactive
10,CCc1nc2ccccc2n2c(-c3ccccc3)c3c(=O)n(C)c(=O)n(C)c3c12,active: 14.6 µM
11,Cc1cccc(C(=O)N/N=C/c2ccccn2)c1,"inconclusive [inhibitor, single point]"
12,O=S(=O)(c1cccs1)N1CCCc2cccc(O)c21,inactive
13,O=C(NNC(=O)c1ccccc1Br)c1cnccn1,active: 18.4 µM
14,COc1ccc(Cl)cc1NC(=O)CN(C)C(=O)Cc1ccc(-c2ccccc2)cc1,inactive
15,Cc1cc(C(=O)CSc2nc3ccccc3c(=O)[nH]2)c(C)n1C,"inconclusive [inhibitor, single point]"
16,CCCCCNc1nc(NCCCO)c(C#N)c2c1CN(C)CC2,"inconclusive [inhibitor, single point]"
17,CCc1c(C)nc2nncn2c1Nc1ccc(Cl)cc1,"inconclusive [inhibitor, single point]"
18,CCOC(=O)c1cc2c(=O)n3ccccc3nc2n(CCCOC)c1=NC(=O)c1ccncc1,inactive
19,CCC(=O)N1CCc2cc(S(=O)(=O)NCCC(=O)NCc3ccc(F)cc3)ccc21,inactive
20,CCN(CC(=O)Nc1ccc2c(c1)OCCO2)C(=O)COc1ccc(C)cc1,inactive
21,CC1=CC(=C2C(=O)c3ccccc3C2=O)C=C(C)O1,active: 10.3 µM
22,COc1ccc(CNC(=O)c2c(C)cc(=O)oc2C)cc1OC,"inconclusive [inhibitor, single point]"
23,CCOc1ccccc1NS(=O)(=O)c1ccc2c(c1)CC(C)N2C(=O)C1CC1 (centres undefined),"inconclusive [inhibitor, single point]"
24,CC(Oc1ccc(F)cc1)C(=O)Nc1cc(S(=O)(=O)N2CCOCC2)ccc1N1CCCCC1 (centres undefined),"inconclusive [inhibitor, single point]"
25,Cc1sc2nc(CSc3ccc([N+](=O)[O-])c(C(F)(F)F)c3)[nH]c(=O)c2c1C,"inconclusive [inhibitor, single point]"

row,Compound,Potency
1,Cn1c(CN2CCCCC2)nc2cc(NS(=O)(=O)c3ccc(Cl)cc3)ccc21,"inconclusive [inhibitor, single point]"
2,CCC(CO)Oc1cc(NCc2ccc(O)cc2)c2ncn(C(C)C)c2c1 (centres undefined),"inconclusive [inhibitor, single point]"
3,CC1CCCC(C)N1S(=O)(=O)c1ccc(S(=O)(=O)NCCc2ccncc2)cc1 (centres undefined),"inconclusive [inhibitor, partial curve]"
4,CC1(C(=O)NCC2CCOCC2)Cc2c(-c3cccc(C(N)=O)c3)ccnc2O1 (centres undefined),active: 25.9 µM
5,O=C(/C=C/c1cn(CC(O)CN2CCCCC2)c2ccccc12)c1ccccc1 (centres undefined),"inconclusive [inhibitor, partial curve, poor fit]"
6,CC(=O)NCCC(=O)Nc1nc(-c2ccc3ccccc3c2)cs1,"inconclusive [inhibitor, single point]"
7,Cc1ccc(C(=O)CCS(=O)(=O)c2ccc(Br)cc2)cc1,active: 5.17 µM
8,COc1cccc(CN(C)C(=O)c2ccc(NS(=O)(=O)c3ccc(F)cc3)cc2)c1OC,"inconclusive [inhibitor, partial curve]"
9,CCN(Cc1ccccc1)C(=O)COC(=O)c1cc(Cl)nc(Cl)c1,inactive
10,FC(F)(F)c1cccc(Cn2c3[n+](c4ccc(C(F)(F)F)cc42)CCCCC3)c1,"inconclusive [inhibitor, single point]"
11,CC(C)C1C(=O)N(Cc2cn(CC3CCCCC3)nn2)CCS(=O)(=O)N1Cc1ccc(-c2ccc(Cl)nc2)cc1 (centres undefined),active: 14.6 µM
12,COc1ccc(C2=NS(=O)(=O)N(C)C(C(=O)N3CCC(C)CC3)=C2)cc1,"inconclusive [inhibitor, partial curve]"
13,O=S1(=O)CC(N2CCC(c3ccccc3)CC2)CN1Cc1ccccc1 (centres undefined),"inconclusive [inhibitor, single point]"
14,COc1ccc(NC(C)=O)cc1NC(=O)CSc1nnc(-c2ccccc2)n1N,inactive
15,COc1ccccc1C(OC(=O)c1cccs1)C(=O)NCC1CCCO1 (centres undefined),inactive
16,CC(Sc1ncnc2c1cnn2-c1ccccc1)C(=O)Nc1ccc(N2CCOCC2)cc1 (centres undefined),inactive
17,N#Cc1ccc(CN2CC3(CCN(C(=O)c4ccco4)CC3)C2)cc1,inactive
18,O=[N+]([O-])c1ccc(NS(=O)(=O)c2ccccc2)c(Cl)c1,"inconclusive [inhibitor, partial curve, poor fit]"
19,CC(c1nc2ccccc2[nH]1)n1c(-c2ccncc2)nc2ccccc21 (centres undefined),inactive
20,C=CCn1c(CNC(=O)c2ccco2)nnc1SCC(=O)c1ccc(F)cc1,"inconclusive [inhibitor, full curve]"
21,Cc1ccc(CNC(=O)/C=C/c2ccc(S(=O)(=O)N3CCOCC3)cc2)cc1,inactive
22,O=C(N/N=C/c1c[nH]c2ccccc12)C1COc2ccccc2O1 (centres undefined),active: 10.3 µM
23,COc1ccc(CC(=O)O/N=C(\N)c2ccccn2)cc1OC,inactive
24,CNC(=O)COC(=O)c1c2c(nc3ccccc13)CCC2,"inconclusive [inhibitor, single point]"
25,Cc1ccc(S(=O)(=O)NCC2(c3ccccc3)CCN(C)CC2)cc1,inactive

row,Compound,Potency
1,O=C(CCCSc1nc2ccccc2[nH]1)N1CCN(c2ccccc2)CC1,"inconclusive [inhibitor, single point]"
2,CC(=O)c1cccc(-c2ccnc3c2CC(C(=O)NCc2ccc(F)c(F)c2)O3)c1 (centres undefined),active: 4.11 µM
3,O=C(NCCc1csc(-c2ccc(F)cc2)n1)c1ccco1,"inconclusive [inhibitor, single point]"
4,CCOC(=O)N1C(=O)C2(CCCCC2)N(c2ccccc2Cl)C1=S,inactive
5,CC1=C(C(=O)Nc2cc(Cl)ccc2C)C2(CCCCC2)OC1=O,"inconclusive [inhibitor, single point]"
6,Cc1c(Cl)cccc1NC(=O)c1cccnc1,inactive
7,Cc1nc2ccccc2c(N)c1C(=O)/C=C/c1ccccc1,"inconclusive [inhibitor, single point]"
8,CC(=O)Nc1ccc(SCc2ncc(-c3ccccc3)o2)cc1,"inconclusive [inhibitor, partial curve]"
9,Cc1ccc(-c2cc(-c3ccccc3C)[nH]n2)c(O)c1,"inconclusive [inhibitor, partial curve, poor fit]"
10,Cc1cc(NC(=O)CSc2nc3c(c(=O)n2CCc2ccccc2)SC(C)C3)no1 (centres undefined),"inconclusive [inhibitor, partial curve]"
11,CCn1c2ccccc2c2cc(NC(=O)C(C)Oc3ccc(OC)cc3)ccc21 (centres undefined),"inconclusive [inhibitor, single point]"
12,Cc1noc(C(=O)Nc2cccnc2)c1Cl,"inconclusive [inhibitor, single point]"
13,OC(CSc1ccc(F)cc1)CN1CCN(c2ccccc2)CC1 (centres undefined),inactive
14,CCCCN(C(=O)c1ccc([N+](=O)[O-])o1)c1c(N)n(CCCC)c(=O)[nH]c1=O,"inconclusive [inhibitor, single point]"
15,N#Cc1ccc(-c2nc3ccc(Br)cn3c2Cc2ccccc2)cc1,active: 11.6 µM
16,CCC(C(=O)NC1CCCC1)n1c(-c2ccncc2)nc2ccccc21 (centres undefined),inactive
17,CC1CN(C(=O)c2cc3cc(Cl)ccc3[nH]2)CC(C)O1 (centres undefined),"inconclusive [inhibitor, single point]"
18,CCOc1ccc(NC(=O)C2CCN(c3nc4ccccc4[nH]3)CC2)cc1,"inconclusive [inhibitor, single point]"
19,CC(C)Cc1nc2oc3c(NCC4CCCO4)ncnc3c2c2c1CCC2 (centres undefined),active: 13 µM
20,CCNC(=O)C1(C)CCN(Cc2ccc(C(F)(F)F)cc2)C1 (centres undefined),"inconclusive [inhibitor, single point]"
21,COc1ccccc1-c1cnc(C(O)c2ccc(Cl)c(Cl)c2)[nH]1 (centres undefined),"inconclusive [inhibitor, single point]"
22,Cc1ccc(C(=O)Nc2ccncc2)cc1[N+](=O)[O-],"inconclusive [inhibitor, partial curve]"
23,Cc1ccc(-c2nn(C)c(=O)c3ccccc23)cc1S(=O)(=O)NCCN1CCOCC1,"inconclusive [inhibitor, single point]"
24,CC(C)(C)C(=O)Cn1c(=N)n(Cc2ccccc2Cl)c2ccccc21,active: 25.9 µM

# — PubChem BioAssay AID686979 (National Center for Advancing Translational Sciences (NCATS), 2013)
